Measurements from the BET-seq Pho4 binding data (Le et al. 2018).
Some of the results follow. Values were computed here from the reads of four pooled replicates and scatter widely.

biological target: T1, Pho4 (S. cerevisiae) (UniProt P07270); test: relative binding free energy (BET-seq); higher = weaker binding; conditions: reference: library average
T1 sequence: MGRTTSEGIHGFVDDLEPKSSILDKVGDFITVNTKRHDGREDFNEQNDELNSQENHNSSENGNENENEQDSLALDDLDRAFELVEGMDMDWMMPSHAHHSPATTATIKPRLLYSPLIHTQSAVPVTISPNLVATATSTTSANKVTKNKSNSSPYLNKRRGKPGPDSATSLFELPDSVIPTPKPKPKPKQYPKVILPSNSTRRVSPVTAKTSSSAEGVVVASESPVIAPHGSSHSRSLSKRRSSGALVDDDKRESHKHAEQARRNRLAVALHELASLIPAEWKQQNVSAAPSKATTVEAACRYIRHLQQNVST

| Sequence | relative binding free energy |
| --- | --- |
| GGCAGCACGTGGTGCG | -0.2 kcal/mol |
| ATTTTCACGTGGGTCT | 0.16 kcal/mol |
| TTCCACACGTGGGTGT | -0.03 kcal/mol |
| GGGGTCACGTGATAGT | 0.34 kcal/mol |
| TTAGACACGTGGTGGA | -0.07 kcal/mol |
| AGGGTCACGTGGGTGC | 0.05 kcal/mol |
| TTTAACACGTGGGGGT | -0.11 kcal/mol |
| TCTGTCACGTGGTCTT | -0.09 kcal/mol |
| TGACTCACGTGGGAGG | 0.09 kcal/mol |
| GAGTTCACGTGGATGC | 0.52 kcal/mol |
| CGGGCCACGTGGGGTT | -0.18 kcal/mol |
| GGGGCCACGTGGTTAG | -0.03 kcal/mol |
| AGTGTCACGTGTCTGG | 0.11 kcal/mol |
| TCATCCACGTGTTGTT | 0.05 kcal/mol |
| AGAGACACGTGATGGC | 0.24 kcal/mol |
| GATGGCACGTGTGGTG | 0.2 kcal/mol |
| GCGTGCACGTGTGGGA | 0.07 kcal/mol |
| TTTTGCACGTGGCTGT | -0.02 kcal/mol |
| TTATGCACGTGCACTT | 0.02 kcal/mol |
| GGGCGCACGTGTGGGG | 0.11 kcal/mol |
| GGAGGCACGTGTGCTA | -0.06 kcal/mol |
| CAAGGCACGTGGCTGG | -0.01 kcal/mol |
| AGGGACACGTGGCGCG | -0.11 kcal/mol |

| Sequence | relative binding free energy |
| --- | --- |
| CGTTCCACGTGAGGTT | 0.24 kcal/mol |
| TGTGACACGTGGGTTT | -0.17 kcal/mol |
| TTAATCACGTGTGCGA | 0.15 kcal/mol |
| GTTTGCACGTGTGAGG | 0.12 kcal/mol |
| TTGGGCACGTGTCTGA | -0.16 kcal/mol |
| GCTTGCACGTGGTTGA | 0.03 kcal/mol |
| ATGGACACGTGTTTAA | 0 kcal/mol |
| GATGGCACGTGGCGGT | -0.08 kcal/mol |
| TAGGACACGTGGTGAG | -0.02 kcal/mol |
| GGAGTCACGTGTCGTT | 0 kcal/mol |
| AGTGGCACGTGATCTG | 0.02 kcal/mol |
| TGATTCACGTGGATAG | 0.21 kcal/mol |
| TTGTGCACGTGTTATG | -0.03 kcal/mol |
| TTTTTCACGTGTGCAC | 0.34 kcal/mol |
| ACGTTCACGTGGGAGG | 0.15 kcal/mol |
| ACTGCCACGTGGGGTG | -0.21 kcal/mol |
| TCGGGCACGTGGAGTT | 0.03 kcal/mol |
| TGTCACACGTGGTTAT | 0.09 kcal/mol |
| CGGTGCACGTGAGTAG | 0.1 kcal/mol |
| TTCTGCACGTGGCTGG | -0.02 kcal/mol |
| ATGGACACGTGACTGG | 0.09 kcal/mol |
| GGTTTCACGTGCGTTG | 0.4 kcal/mol |
| TTAGACACGTGAGGGG | 0.16 kcal/mol |

| Sequence | relative binding free energy |
| --- | --- |
| GGCTACACGTGGGGTT | -0.08 kcal/mol |
| ATGAACACGTGGCTTG | -0.01 kcal/mol |
| GGTGTCACGTGACCGG | 0.17 kcal/mol |
| TTCGGCACGTGTTTGT | -0.03 kcal/mol |
| GGCAACACGTGCGGGT | 0.01 kcal/mol |
| ATTTCCACGTGTTTGG | 0.03 kcal/mol |
| TGTGTCACGTGCTCGT | 0.03 kcal/mol |
| TGTAGCACGTGGGAAT | -0.24 kcal/mol |
| GGGGCCACGTGCGTAG | -0.11 kcal/mol |
| TCGGGCACGTGTTCGG | -0.14 kcal/mol |
| GTTCTCACGTGAGGTT | 0.33 kcal/mol |
| TGTCACACGTGGGCGG | -0.01 kcal/mol |
| AATATCACGTGTAGTG | 0.01 kcal/mol |
| TAAGACACGTGGTCGG | 0.01 kcal/mol |
| AGTGACACGTGGAGGC | 0.06 kcal/mol |
| GGTCGCACGTGATGAG | 0.11 kcal/mol |
| ATGGGCACGTGCAAGG | -0.06 kcal/mol |
| GGTGCCACGTGAGCTG | 0.13 kcal/mol |
| TGACTCACGTGGGGGT | 0.05 kcal/mol |
| AAGCGCACGTGGGTCG | -0.18 kcal/mol |
| GCTGGCACGTGGATGC | 0 kcal/mol |
| GTTCTCACGTGTATTT | 0.09 kcal/mol |
| AGGGGCACGTGGGTAG | -0.18 kcal/mol |

| Sequence | relative binding free energy |
| --- | --- |
| GGGTGCACGTGTCTTA | 0.02 kcal/mol |
| GGTATCACGTGATGGG | 0.37 kcal/mol |
| TATGACACGTGAGTGC | 0.23 kcal/mol |
| TAGCTCACGTGATGGG | 0.37 kcal/mol |
| GGTGCCACGTGGGTGG | -0.2 kcal/mol |
| TGGCGCACGTGGGCAT | -0.28 kcal/mol |
| TGTTTCACGTGATATT | 0.3 kcal/mol |
| AATTACACGTGGGGGA | -0.05 kcal/mol |
| TGGTGCACGTGCAAGG | -0.05 kcal/mol |
| GGGCGCACGTGTAAGG | 0.04 kcal/mol |
| CATTACACGTGAGTTA | 0.43 kcal/mol |
| TGATACACGTGAGATT | 0.3 kcal/mol |
| TGTTACACGTGGGTGA | 0 kcal/mol |
| TGAATCACGTGTGTTC | 0.11 kcal/mol |
| TTTGCCACGTGTATTT | -0.09 kcal/mol |
| AGAGGCACGTGGATAT | -0.13 kcal/mol |
| TCGTGCACGTGTAGTG | -0.09 kcal/mol |
| GTGCACACGTGTTGGA | 0.1 kcal/mol |
| GGTTCCACGTGTTCAG | 0.17 kcal/mol |
| TGTGTCACGTGATACG | 0.23 kcal/mol |
| TGTCGCACGTGTATAG | -0.09 kcal/mol |
| CGTGTCACGTGAGATT | 0.27 kcal/mol |
| GGCTGCACGTGGGATA | -0.09 kcal/mol |

| Sequence | relative binding free energy |
| --- | --- |
| CTTAGCACGTGTTTAT | -0.07 kcal/mol |
| GTAGTCACGTGGTATT | 0.14 kcal/mol |
| TTAGGCACGTGACGGT | -0.15 kcal/mol |
| GTTGACACGTGTAGTC | 0.19 kcal/mol |
| TTATTCACGTGGGTCT | 0.16 kcal/mol |
| TTAGGCACGTGCTTCG | -0.19 kcal/mol |
| GAGTTCACGTGCGGTC | 0.36 kcal/mol |
| GGGTGCACGTGTCGTT | 0.14 kcal/mol |
| GGGACCACGTGATGTG | 0.18 kcal/mol |
| CTTTTCACGTGTGTAT | 0.28 kcal/mol |
| GTGGGCACGTGTTGCT | 0.05 kcal/mol |
| CTTTTCACGTGATGGA | 0.31 kcal/mol |
| AGAAACACGTGGTTGG | -0.02 kcal/mol |
| TGATTCACGTGGTGCG | 0.13 kcal/mol |
| ACTTGCACGTGGGTAT | -0.04 kcal/mol |
| AGAAGCACGTGGTTAT | -0.19 kcal/mol |
| ATTTGCACGTGTTACT | 0.08 kcal/mol |
| TTAGGCACGTGGCCGG | -0.17 kcal/mol |
| TTGAACACGTGTGGTA | 0.03 kcal/mol |
| TAAATCACGTGGGGGA | 0.03 kcal/mol |
| GGATGCACGTGGTTTT | 0.02 kcal/mol |
| ATGAACACGTGCGTTT | 0.02 kcal/mol |
| CAGGACACGTGGATTG | 0.12 kcal/mol |
